In patent US10017827B2, “Herbicide-resistant sunflower plants with multiple herbicide resistant alleles of AHASL1 and methods of use” (BASF AGROCHEMICAL PRODUCTS B.V., priority 2007, dated 2018):
Where two headings read alike, the source gives them in different places.

Key:
[1] = tested on: AHAS enzyme, A122T homozygous (GM40); conditions: Set 2
[2] = tested on: AHAS enzyme, A122T homozygous hybrid (cmsGM40 × R733); conditions: Set 1
[3] = tested on: AHAS enzyme, A122T heterozygous hybrid (cmsBTK47 × R731); conditions: Set 2

Compound	AHAS activity, % of untreated control ([1]; 50 μM imazamox) [%]	AHAS activity, % of untreated control ([1]; 100 μM imazamox) [%]	AHAS activity, % of untreated control ([2]; 100 μM imazamox) [%]	AHAS activity, % of untreated control ([3]; 50 μM imazamox) [%]	AHAS activity, % of untreated control ([3]; 100 μM imazamox) [%]	AHAS activity, % of untreated control ([2]; 100 μM imazapyr) [%]
COCc1cnc(C2=NC(C)(C(C)C)C(=O)N2)c(C(=O)O)c1 (stereo not drawn) [imazamox]	63	60	69	30	30	–
CC(C)C1(C)N=C(c2ncccc2C(=O)O)NC1=O (stereo not drawn) [imazapyr]	–	–	–	–	–	64
